# Laboratory results: the supplement of paper PMC8728848
# The other results are listed elsewhere or left out.
# B1: MUC1-SEA-mFcIgG2a (Homo sapiens), P15941 (SEA domain only) (protein)
# chain: DAAQPARRAVRSSSELTSEQKLISEEDLSRLVHNGTSARATTTPASKSTPFSIPSHHSDTPTTLASHSTKTDASSTHHSTVPPLTSSNHSTSPQLSTGVSFFFLSFHISNLQFNSSLEDPSTDYYQELQRDISEMFLQIYKQGGFLGLSNIKFRPGSVVVQLTLAFREGTINVHDVETQFNQYKTEAASRYNLTISDASVSDVPFPFSAQSGSDDDDKALEPRGPTIKPCPPCKCPAPNLLGGPSVFIFPPKIKDVLMISLSPIVTCVVVDVSEDDPDVQISWFVNNVEVHTAQTQTHREDYNSTLRVVSALPIQHQDWMSGKEFKCKVNNKDLPAPIERTISKPKGSVRAPQVYVLPPPEEEMTKKQVTLTCMVTDFMPEDIYVEWTNNGKTELNYKNTEPVLDSDGSYFMYSKLRVEKKNWVERNSYSCSVVHEGLHNHHTTKSFSRTPGKHHHHH
# Legend:
# Experiment in all cases: glycan array binding signal (z-score within array); higher = stronger binding
# Details in all cases: glycan notation: IUPAC condensed, linker removed
# [1] = biological target: Neu5Ac(a2-3)Gal(b1-3)[Fuc(a1-4)]GlcNAc(b1-3)Gal(b1-4)[Fuc(a1-3)]GlcNAc
# How it was run: (§1)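 The Consortium for Functional Glycomics database supplied 3228 glycan arrays, of which those lacking an available protein sequence were dropped. The binding signal, a within-array Z-score, was averaged across arrays of the same protein sequence and across linkers. Negative scores can be read as non-binding.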
# [2] = biological target: Neu5Ac(a2-3)Gal(b1-3)[Neu5Ac(a2-3)Gal(b1-4)]GlcNAc
# How it was run: as §1
# [3] = biological target: Neu5Ac(a2-3)Gal(b1-3)[Neu5Ac(a2-6)]GalNAc
# How it was run: as §1
# [4] = biological target: Neu5Ac(a2-3)Gal(b1-4)Glc
# How it was run: as §1
# [5] = biological target: Neu5Ac(a2-3)Gal(b1-4)GlcNAc
# How it was run: as §1
# [6] = biological target: Neu5Ac(a2-3)Gal(b1-4)GlcNAc(b1-2)Man(a1-3)[GlcNAc(b1-2)Man(b1-4)GlcNAc(b1-2)Man(a1-6)]Man(b1-4)GlcNAc(b1-4)GlcNAc
# How it was run: as §1
# [7] = biological target: Neu5Ac(a2-3)Gal(b1-4)GlcNAc(b1-2)Man(a1-3)[Neu5Ac(a2-6)Gal(b1-4)GlcNAc(b1-2)Man(a1-6)]Man(b1-4)GlcNAc(b1-4)GlcNAc
# How it was run: as §1
# [8] = biological target: Neu5Ac(a2-3)Gal(b1-4)GlcNAc(b1-3)Gal(b1-3)GlcNAc
# How it was run: as §1
# [9] = biological target: Neu5Ac(a2-3)Gal(b1-4)GlcNAc(b1-3)Gal(b1-4)GlcNAc
# How it was run: as §1
# [10] = biological target: Neu5Ac(a2-3)Gal(b1-4)GlcNAc(b1-3)Gal(b1-4)GlcNAc(b1-3)Gal(b1-4)GlcNAc
# How it was run: as §1
# [11] = biological target: Neu5Ac(a2-3)Gal(b1-4)GlcNAc(b1-3)Gal(b1-4)[Fuc(a1-3)]GlcNAc
# How it was run: as §1
# [12] = biological target: Neu5Ac(a2-3)Gal(b1-4)GlcNAc(b1-6)[Gal(b1-3)]GalNAc
# How it was run: as §1
# [13] = biological target: Neu5Ac(a2-3)Gal(b1-4)GlcNAc(b1-6)[Neu5Ac(a2-3)Gal(b1-3)]GalNAc
# How it was run: as §1
# [14] = biological target: Neu5Ac(a2-3)Gal(b1-4)GlcNAc6S
# How it was run: as §1
# [15] = biological target: Neu5Ac(a2-3)Gal(b1-4)[Fuc(a1-3)]GlcNAc
# How it was run: as §1
# [16] = biological target: Neu5Ac(a2-3)Gal(b1-4)[Fuc(a1-3)]GlcNAc(b1-3)Gal
# How it was run: as §1
# [17] = biological target: Neu5Ac(a2-3)Gal(b1-4)[Fuc(a1-3)]GlcNAc(b1-3)Gal(b1-4)GlcNAc
# How it was run: as §1
# [18] = biological target: Neu5Ac(a2-3)Gal(b1-4)[Fuc(a1-3)]GlcNAc(b1-3)Gal(b1-4)[Fuc(a1-3)]GlcNAc(b1-3)Gal(b1-4)[Fuc(a1-3)]GlcNAc
# How it was run: as §1
# [19] = biological target: Neu5Ac(a2-3)Gal(b1-4)[Fuc(a1-3)]GlcNAc(b1-6)[Gal(b1-3)]GalNAc
# How it was run: as §1
# [20] = biological target: Neu5Ac(a2-3)Gal(b1-4)[Fuc(a1-3)]GlcNAc6S
# How it was run: as §1
# [21] = biological target: Neu5Ac(a2-3)Gal6S(b1-4)GlcNAc
# How it was run: as §1
# [22] = biological target: Neu5Ac(a2-3)Gal6S(b1-4)[Fuc(a1-3)]GlcNAc
# How it was run: as §1
# [23] = biological target: Neu5Ac(a2-3)GalNAc
# How it was run: as §1
# [24] = biological target: Neu5Ac(a2-3)GalNAc(b1-4)GlcNAc
# How it was run: as §1
# [25] = biological target: Neu5Ac(a2-3)[GalNAc(b1-4)]Gal(b1-4)Glc
# How it was run: as §1
# [26] = biological target: Neu5Ac(a2-3)[GalNAc(b1-4)]Gal(b1-4)GlcNAc
# How it was run: as §1
# [27] = biological target: Neu5Ac(a2-3)[Neu5Ac(a2-6)]GalNAc
# How it was run: as §1
# [28] = biological target: Neu5Ac(a2-6)Gal
# How it was run: as §1
# [29] = biological target: Neu5Ac(a2-6)Gal(b1-4)Glc
# How it was run: as §1
# [30] = biological target: Neu5Ac(a2-6)Gal(b1-4)GlcNAc
# How it was run: as §1
# [31] = biological target: Neu5Ac(a2-6)Gal(b1-4)GlcNAc(b1-2)Man(a1-3)[Gal(b1-4)GlcNAc(b1-2)Man(a1-6)]Man(b1-4)GlcNAc(b1-4)GlcNAc
# How it was run: as §1
# [32] = biological target: Neu5Ac(a2-6)Gal(b1-4)GlcNAc(b1-2)Man(a1-3)[GlcNAc(b1-2)Man(a1-6)]Man(b1-4)GlcNAc(b1-4)GlcNAc
# How it was run: as §1
# [33] = biological target: Neu5Ac(a2-6)Gal(b1-4)GlcNAc(b1-2)Man(a1-3)[GlcNAc(b1-2)Man(b1-4)GlcNAc(b1-2)Man(a1-6)]Man(b1-4)GlcNAc(b1-4)GlcNAc
# How it was run: as §1
# [34] = biological target: Neu5Ac(a2-6)Gal(b1-4)GlcNAc(b1-2)Man(a1-3)[Neu5Ac(a2-6)Gal(b1-4)GlcNAc(b1-2)Man(a1-6)]Man(b1-4)GlcNAc(b1-4)GlcNAc
# How it was run: as §1
# [35] = biological target: Neu5Ac(a2-6)Gal(b1-4)GlcNAc(b1-2)Man(a1-6)[Gal(b1-4)GlcNAc(b1-2)Man(a1-3)]Man(b1-4)GlcNAc(b1-4)GlcNAc
# How it was run: as §1
# [36] = biological target: Neu5Ac(a2-6)Gal(b1-4)GlcNAc(b1-2)Man(a1-6)[GlcNAc(b1-2)Man(a1-3)]Man(b1-4)GlcNAc(b1-4)GlcNAc
# How it was run: as §1
# [37] = biological target: Neu5Ac(a2-6)Gal(b1-4)GlcNAc(b1-3)Gal(b1-4)GlcNAc
# How it was run: as §1
# [38] = biological target: Neu5Ac(a2-6)Gal(b1-4)GlcNAc(b1-3)Gal(b1-4)[Fuc(a1-3)]GlcNAc(b1-3)Gal(b1-4)[Fuc(a1-3)]GlcNAc
# How it was run: as §1
# [39] = biological target: Neu5Ac(a2-6)Gal(b1-4)GlcNAc6S
# How it was run: as §1
# [40] = biological target: Neu5Ac(a2-6)GalNAc
# How it was run: as §1
# [41] = biological target: Neu5Ac(a2-6)GalNAc(b1-4)GlcNAc
# How it was run: as §1
# [42] = biological target: Neu5Ac(a2-8)Neu5Ac
# How it was run: as §1
# [43] = biological target: Neu5Ac(a2-8)Neu5Ac(a2-3)Gal(b1-4)Glc
# How it was run: as §1
# [44] = biological target: Neu5Ac(a2-8)Neu5Ac(a2-3)[GalNAc(b1-4)]Gal(b1-4)Glc
# How it was run: as §1
# [45] = biological target: Neu5Ac(a2-8)Neu5Ac(a2-8)Neu5Ac
# How it was run: as §1
# [46] = biological target: Neu5Ac(a2-8)Neu5Ac(a2-8)Neu5Ac(a2-3)Gal(b1-4)Glc
# How it was run: as §1
# [47] = biological target: Neu5Ac(a2-8)Neu5Ac(a2-8)Neu5Ac(a2-3)[GalNAc(b1-4)]Gal(b1-4)Glc
# How it was run: as §1
# [48] = biological target: Neu5Ac(a2-8)Neu5Ac(a2-8)Neu5Ac(a2-8)Neu5Ac(a2-3)[GalNAc(b1-4)]Gal(b1-4)Glc
# How it was run: as §1
# [49] = biological target: Neu5Ac(b2-6)Gal(b1-4)GlcNAc
# How it was run: as §1
# [50] = biological target: Neu5Ac(b2-6)GalNAc
# How it was run: as §1
# [51] = biological target: Neu5Ac9Ac(a2-6)Gal(b1-4)GlcNAc
# How it was run: as §1
# [52] = biological target: Neu5Gc(a2-3)Gal(b1-3)GlcNAc
# How it was run: as §1
# [53] = biological target: Neu5Gc(a2-3)Gal(b1-3)[Fuc(a1-4)]GlcNAc
# How it was run: as §1
# [54] = biological target: Neu5Gc(a2-3)Gal(b1-4)Glc
# How it was run: as §1
# [55] = biological target: Neu5Gc(a2-3)Gal(b1-4)GlcNAc
# How it was run: as §1
# [56] = biological target: Neu5Gc(a2-3)Gal(b1-4)[Fuc(a1-3)]GlcNAc
# How it was run: as §1
# [57] = biological target: Neu5Gc(a2-6)Gal(b1-4)GlcNAc
# How it was run: as §1
# [58] = biological target: Neu5Gc(a2-6)GalNAc
# How it was run: as §1
# [59] = biological target: Neu5Gc(b2-6)Gal(b1-4)GlcNAc
# How it was run: as §1
binder,measurement,setting,value
B1,glycan array binding signal (z-score),[1],-0.296
same,glycan array binding signal (z-score),[2],-0.394
same,glycan array binding signal (z-score),[3],-0.256
same,glycan array binding signal (z-score),[4],-0.399
same,glycan array binding signal (z-score),[5],-0.157
same,glycan array binding signal (z-score),[6],0.15
same,glycan array binding signal (z-score),[7],-0.072
same,glycan array binding signal (z-score),[8],-0.42
same,glycan array binding signal (z-score),[9],-0.354
same,glycan array binding signal (z-score),[10],-0.118
same,glycan array binding signal (z-score),[11],0.606
same,glycan array binding signal (z-score),[12],-0.457
same,glycan array binding signal (z-score),[13],-0.378
same,glycan array binding signal (z-score),[14],-0.21
same,glycan array binding signal (z-score),[15],-0.382
same,glycan array binding signal (z-score),[16],-0.375
same,glycan array binding signal (z-score),[17],-0.381
same,glycan array binding signal (z-score),[18],-0.508
same,glycan array binding signal (z-score),[19],1.4
same,glycan array binding signal (z-score),[20],0.354
same,glycan array binding signal (z-score),[21],-0.055
same,glycan array binding signal (z-score),[22],-0.348
same,glycan array binding signal (z-score),[23],-0.07
same,glycan array binding signal (z-score),[24],-0.601
same,glycan array binding signal (z-score),[25],-0.29
same,glycan array binding signal (z-score),[26],-0.408
same,glycan array binding signal (z-score),[27],-0.035
same,glycan array binding signal (z-score),[28],-0.344
same,glycan array binding signal (z-score),[29],-0.261
same,glycan array binding signal (z-score),[30],-0.427
same,glycan array binding signal (z-score),[31],-0.245
same,glycan array binding signal (z-score),[32],-0.1
same,glycan array binding signal (z-score),[33],0.253
same,glycan array binding signal (z-score),[34],0.034
same,glycan array binding signal (z-score),[35],-0.32
same,glycan array binding signal (z-score),[36],0.985
same,glycan array binding signal (z-score),[37],-0.465
same,glycan array binding signal (z-score),[38],-0.422
same,glycan array binding signal (z-score),[39],-0.129
same,glycan array binding signal (z-score),[40],-0.397
same,glycan array binding signal (z-score),[41],-0.459
same,glycan array binding signal (z-score),[42],0.669
same,glycan array binding signal (z-score),[43],-0.51
same,glycan array binding signal (z-score),[44],-0.453
same,glycan array binding signal (z-score),[45],-0.352
same,glycan array binding signal (z-score),[46],-0.328
same,glycan array binding signal (z-score),[47],-0.423
same,glycan array binding signal (z-score),[48],-0.126
same,glycan array binding signal (z-score),[49],-0.324
same,glycan array binding signal (z-score),[50],-0.159
same,glycan array binding signal (z-score),[51],-0.191
same,glycan array binding signal (z-score),[52],-0.484
same,glycan array binding signal (z-score),[53],-0.12
same,glycan array binding signal (z-score),[54],-0.094
same,glycan array binding signal (z-score),[55],-0.41
same,glycan array binding signal (z-score),[56],-0.561
same,glycan array binding signal (z-score),[57],0.128
same,glycan array binding signal (z-score),[58],-0.307
same,glycan array binding signal (z-score),[59],0.23
